Among the data in article PMC8873214, “RIOX1-demethylated cGAS regulates ionizing radiation-elicited DNA repair” (Bone Research, 2022) are binding values, retold here.

Chains of the proteins cited; added tags and fusions are not shown. Lines headed by an entry give the natural chain unless they say otherwise; changes in a name come on top.
UniProt Q8C6L5: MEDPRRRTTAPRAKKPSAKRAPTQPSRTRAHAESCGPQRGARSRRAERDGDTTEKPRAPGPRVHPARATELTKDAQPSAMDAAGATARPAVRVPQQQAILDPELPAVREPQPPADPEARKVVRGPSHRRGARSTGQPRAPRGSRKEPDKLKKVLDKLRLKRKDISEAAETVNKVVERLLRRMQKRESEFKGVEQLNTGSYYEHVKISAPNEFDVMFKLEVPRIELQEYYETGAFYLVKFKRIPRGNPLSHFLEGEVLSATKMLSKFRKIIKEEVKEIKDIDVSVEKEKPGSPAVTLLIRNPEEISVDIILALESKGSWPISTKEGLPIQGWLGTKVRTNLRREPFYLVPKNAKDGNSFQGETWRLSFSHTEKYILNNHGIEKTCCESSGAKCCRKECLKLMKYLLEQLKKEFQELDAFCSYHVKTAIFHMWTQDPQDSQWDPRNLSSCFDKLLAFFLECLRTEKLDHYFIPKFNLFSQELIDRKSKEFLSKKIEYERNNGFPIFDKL
UniProt P11103: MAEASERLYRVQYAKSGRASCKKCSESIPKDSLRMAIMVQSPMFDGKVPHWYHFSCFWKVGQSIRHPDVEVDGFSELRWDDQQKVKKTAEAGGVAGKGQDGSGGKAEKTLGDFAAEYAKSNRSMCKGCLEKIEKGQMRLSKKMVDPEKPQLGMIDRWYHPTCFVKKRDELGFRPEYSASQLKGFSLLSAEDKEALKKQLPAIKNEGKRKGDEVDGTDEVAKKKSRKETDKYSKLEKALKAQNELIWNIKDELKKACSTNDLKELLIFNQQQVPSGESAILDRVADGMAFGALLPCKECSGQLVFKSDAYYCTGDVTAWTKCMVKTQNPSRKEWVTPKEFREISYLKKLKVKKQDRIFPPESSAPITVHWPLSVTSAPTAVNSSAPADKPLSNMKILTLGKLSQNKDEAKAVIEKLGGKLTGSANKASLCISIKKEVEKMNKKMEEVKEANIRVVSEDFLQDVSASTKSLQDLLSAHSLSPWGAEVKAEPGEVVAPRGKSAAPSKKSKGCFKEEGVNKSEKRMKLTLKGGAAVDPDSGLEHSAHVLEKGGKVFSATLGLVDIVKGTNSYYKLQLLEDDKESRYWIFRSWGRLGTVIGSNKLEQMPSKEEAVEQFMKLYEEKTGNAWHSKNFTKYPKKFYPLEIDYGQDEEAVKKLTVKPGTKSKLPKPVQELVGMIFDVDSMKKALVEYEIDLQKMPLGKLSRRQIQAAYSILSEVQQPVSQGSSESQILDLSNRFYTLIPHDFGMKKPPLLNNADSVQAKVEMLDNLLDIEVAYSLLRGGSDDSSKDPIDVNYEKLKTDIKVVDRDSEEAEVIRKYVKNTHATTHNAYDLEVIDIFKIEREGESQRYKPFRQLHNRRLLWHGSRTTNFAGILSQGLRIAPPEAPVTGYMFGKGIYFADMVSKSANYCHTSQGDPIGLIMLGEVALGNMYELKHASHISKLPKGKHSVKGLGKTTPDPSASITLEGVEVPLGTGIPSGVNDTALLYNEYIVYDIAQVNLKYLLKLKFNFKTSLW
UniProt Q8CD15: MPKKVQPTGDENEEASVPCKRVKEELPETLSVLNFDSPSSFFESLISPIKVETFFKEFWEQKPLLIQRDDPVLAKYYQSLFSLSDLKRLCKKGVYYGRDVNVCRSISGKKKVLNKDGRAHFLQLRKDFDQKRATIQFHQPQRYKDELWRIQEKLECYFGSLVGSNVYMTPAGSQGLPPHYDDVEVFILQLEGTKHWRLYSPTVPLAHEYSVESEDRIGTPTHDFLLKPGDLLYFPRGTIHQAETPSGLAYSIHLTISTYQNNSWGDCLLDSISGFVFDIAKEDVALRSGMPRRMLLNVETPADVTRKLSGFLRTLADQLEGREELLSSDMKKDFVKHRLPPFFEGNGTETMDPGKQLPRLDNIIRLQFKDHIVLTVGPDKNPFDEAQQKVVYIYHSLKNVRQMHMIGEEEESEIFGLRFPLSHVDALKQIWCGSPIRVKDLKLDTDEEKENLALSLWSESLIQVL

Assay [1] concerns the target WT Flag-cGAS (mouse) (UniProt Q8C6L5). Briefly: co-IP; immunoprecipitation of Flag-cGAS from 32D Cl3 cells treated with 10 Gy ionizing radiation, with or without Riox1 shRNA, Sgf29 shRNA and HA-Sgf29 WT or mutant; immunoprecipitates treated with excess PARG before immunoblot. On the technique in general: In western blotting, separated proteins are transferred to a membrane and probed.

Assay [2] addresses Flag-cGAS K491R (mouse) (UniProt Q8C6L5). The description is as above.
The next assay concerns the target T1, His-Timeless (mouse) (UniProt Q9R1X4).
T1 sequence: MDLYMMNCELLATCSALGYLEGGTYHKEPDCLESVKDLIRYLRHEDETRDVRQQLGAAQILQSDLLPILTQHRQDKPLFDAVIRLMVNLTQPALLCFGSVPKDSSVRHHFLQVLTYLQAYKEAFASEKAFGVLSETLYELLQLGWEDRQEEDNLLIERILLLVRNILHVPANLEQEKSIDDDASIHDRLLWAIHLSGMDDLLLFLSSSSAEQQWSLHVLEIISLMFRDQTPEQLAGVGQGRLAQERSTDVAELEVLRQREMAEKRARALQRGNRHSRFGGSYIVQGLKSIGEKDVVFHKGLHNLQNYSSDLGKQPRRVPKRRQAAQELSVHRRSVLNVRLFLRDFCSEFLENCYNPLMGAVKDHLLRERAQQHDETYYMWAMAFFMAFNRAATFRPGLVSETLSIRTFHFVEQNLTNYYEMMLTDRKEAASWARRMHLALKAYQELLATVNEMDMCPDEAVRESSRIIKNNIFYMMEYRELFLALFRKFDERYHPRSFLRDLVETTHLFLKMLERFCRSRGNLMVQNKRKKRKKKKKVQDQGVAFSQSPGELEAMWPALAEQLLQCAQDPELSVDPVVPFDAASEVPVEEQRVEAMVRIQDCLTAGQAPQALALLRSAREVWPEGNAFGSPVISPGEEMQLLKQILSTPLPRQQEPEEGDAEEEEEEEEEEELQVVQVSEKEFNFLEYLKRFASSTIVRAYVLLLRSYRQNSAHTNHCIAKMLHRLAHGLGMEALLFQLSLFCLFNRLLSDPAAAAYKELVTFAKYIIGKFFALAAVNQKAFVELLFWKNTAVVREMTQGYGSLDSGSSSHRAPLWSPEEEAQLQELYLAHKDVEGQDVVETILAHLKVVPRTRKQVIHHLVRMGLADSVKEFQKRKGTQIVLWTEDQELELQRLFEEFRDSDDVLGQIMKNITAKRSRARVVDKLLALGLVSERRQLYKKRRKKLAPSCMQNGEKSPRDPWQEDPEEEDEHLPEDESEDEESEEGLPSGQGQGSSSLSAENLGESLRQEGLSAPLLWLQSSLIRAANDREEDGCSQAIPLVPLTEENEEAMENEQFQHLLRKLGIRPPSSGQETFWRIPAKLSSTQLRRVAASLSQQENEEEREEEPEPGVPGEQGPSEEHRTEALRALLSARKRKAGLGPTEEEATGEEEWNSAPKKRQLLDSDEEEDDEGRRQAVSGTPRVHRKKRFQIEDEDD
Briefly: pull-down; Ni-NTA pulldown of His-Timeless from 32D Cl3 cells treated with 10 Gy ionizing radiation, with or without Riox1 shRNA, Flag-Cgas WT or K491R, HA-Sgf29 WT or mutant; precipitates treated with excess PARG before immunoblot.

Assay [3] deals with cyclic GMP-AMP synthase (cGAS), endogenous (mouse (endogenous in 32D Cl3 and FDC-P1)) (UniProt Q8C6L5). Put plainly: co-IP; endogenous proteins, 32D Cl3 and FDC-P1 cell lysates; immunoblot; for SGF29 cells with or without Riox1 shRNAs.
In assay [4] the target is WT Flag-cGAS (mouse) (UniProt Q8C6L5). Briefly: co-IP; immunoprecipitation from 32D Cl3 cells transduced with Riox1 shRNA, Flag-Cgas WT or K491R, HA-Sgf29 WT or D194A/D196A; immunoblot.
The target in assay [5] is Flag-cGAS K491R (mouse) (UniProt Q8C6L5). The description is as above.

Results are given in words; binding and its absence hold for the method and conditions named. Binding seen in cells or lysates may run through a third protein. Some results given as binding are weak or reduced against the parent protein; the word gives no strength. For some assays here: Sequences can lack the tags named with a protein.

Regarding “poly(ADP-ribose) polymerase 1 (PARP1), endogenous (from UniProt P11103 1-1013) (enzyme)”, the binding result in the assay with WT Flag-cGAS (mouse) [1], in the assay with Flag-cGAS K491R (mouse) [2] and in the assay with His-Timeless (mouse) was “binds” throughout. Take “RIOX2, endogenous (from UniProt Q8CD15 1-465)”: in assay [3], the binding entry was “no binding”.

B1: SET domain-containing lysine methyltransferase 7 (SET7), endogenous (enzyme, UniProt Q8VHL1 1-366)
chain: MDSDDEVVEEAVEGHLDDDGLPHGFCTVTYSSTDRFEGNFVHGEKNGRGKFFFFDGSTLEGYYVDDALQGQGVYTYEDGGVLQGTYVDGELNGPAQEYDSDGRLIFKGQYKDNNRHGVCWIHYPDGGSLVGEVNEDGEMTGEKIAYVYPDQRTALYGKFIDGEMLEGKLATLMATEEGRPHFEVTSGSSVYHFDKSTSSCISSDALLPDPYESERVYVADSLISSAGEGLFSKVAVGPNTVMSFYNGVRITHQEVDSRDWALNGNTLSLDEETVIDVPEPYNHVSKYCASLGHKANHSFTPNCVYDLFVHPRFGPIKCIRTLRAVEAEEELTVAYGYDHSPPGKSGPEAPEWYQVELKAFQATQQK
Regarding B1, the binding result in assay [3] was “binds”.

B2: ribosomal oxygenase 1 (RIOX1), endogenous (protein, UniProt Q9JJF3 1-603)
chain: MDELPNGNGAALLKRGRGRRRRHPQSQPRGASVLALPLRPRKIRRHRKSAAASRVAALRARALRSEDSDSKVAVASVRGKRKRPAELLEASRSAEPRPVSARPRSASATLPSRVEGWAALSRNLGTAAPPPPGSHADEPGRPRASPLQQVLTELNGIPSSRRRAARLFEWLLAPLPPDHFYRRLWEREAVLVRRQDRSYYEGLFSTADLDSMLRYEDVQFGQHLDAARYVDGRRETLNPPGRALPAAAWSLYRAGCSLRLLCPQAFSPTVWQFLAVLQEQFGSMAGSNVYLTPPDSQGFAPHYDDIEAFVLQLEGRKLWRVYRPRDPSEELALTSSPNFSQEDLGEPVLQTVLEPGDLLYFPRGFIHQAECQDGVHSLHLTLSTYQRNTWGDFLEAVLPLAVQAAIEENVEFRRGLPRDFMDYMGAQHSDSKDPRRTAFMEKVRVLVARLGHFAPVDAVADQRAKDFIHDSLPPVLTDRERALSVHGLPVRWEAGEPVNVGAQLTTETQVHMLQDGVARLVGEGGRLFLYHTVENSRVYHLEEPKCLEIHPQQADAMELLLRSYPEFVRVGDLPCDSVEDQLSLATMLYDKGLLLTKTPLVPS
In the case of B2, the binding result in assay [3] is given as “binds”.

B3: SAGA complex-associated factor 29 (SGF29), endogenous (protein, UniProt Q9DA08 1-293)
chain: MALVSADSRIAELLTELHQLIKQTQEERSRSEHNLVNIQKTHERMQTENKISPYYRTKLRGLYTTAKTDAEAECNILRKALDKIAEIKSLLEERRIAAKIAGLYNDSEPPRKTMRRGVLMTLLQQSAMTLPLWIGKPGDKPPPLCGAIPASGDYVAKPGDKVAARVKAVEGDEQWILAEVVSYSHATNKYEVDDIDEEGKERHTLSRRRIIPLPQWKANPETDPEALFQKEQLVLALYPQTTCFYRALIHTPPQRPQDDYSVLFEDTSYADGYSPPLNVAQRYVVACKEPKKK
With B3, the binding entry is “binds” with WT Flag-cGAS (mouse) [4], “no binding” with Flag-cGAS K491R (mouse) [5] and “binds” in assay [3].

B4: WT HA-SGF29 (protein, UniProt Q9DA08 1-293)
chain: MALVSADSRIAELLTELHQLIKQTQEERSRSEHNLVNIQKTHERMQTENKISPYYRTKLRGLYTTAKTDAEAECNILRKALDKIAEIKSLLEERRIAAKIAGLYNDSEPPRKTMRRGVLMTLLQQSAMTLPLWIGKPGDKPPPLCGAIPASGDYVAKPGDKVAARVKAVEGDEQWILAEVVSYSHATNKYEVDDIDEEGKERHTLSRRRIIPLPQWKANPETDPEALFQKEQLVLALYPQTTCFYRALIHTPPQRPQDDYSVLFEDTSYADGYSPPLNVAQRYVVACKEPKKK
On to B4, for which, in the assay with WT Flag-cGAS (mouse) [4], the binding entry was “binds”.

B5: HA-SGF29 D194A/D196A (protein, UniProt Q9DA08 1-293)
chain: MALVSADSRIAELLTELHQLIKQTQEERSRSEHNLVNIQKTHERMQTENKISPYYRTKLRGLYTTAKTDAEAECNILRKALDKIAEIKSLLEERRIAAKIAGLYNDSEPPRKTMRRGVLMTLLQQSAMTLPLWIGKPGDKPPPLCGAIPASGDYVAKPGDKVAARVKAVEGDEQWILAEVVSYSHATNKYEVDAIAEEGKERHTLSRRRIIPLPQWKANPETDPEALFQKEQLVLALYPQTTCFYRALIHTPPQRPQDDYSVLFEDTSYADGYSPPLNVAQRYVVACKEPKKK
For B5, the binding entry with WT Flag-cGAS (mouse) [4] is given as “no binding”.
